Tests used:
VEGF-A [1] = biological target: VEGF-A (UniProt P15692); assay: cell-based or functional assay
VEGF-A [2] = biological target: T1, VEGF-A (UniProt P15692-4 27-191, limits assumed); assay: BLI (Octet, AHC sensor); fold increase vs VEGF-Grab3 (Panolos Bioscience)
T1 construct: also called vascular endothelial growth factor A
T1 sequence (looked up): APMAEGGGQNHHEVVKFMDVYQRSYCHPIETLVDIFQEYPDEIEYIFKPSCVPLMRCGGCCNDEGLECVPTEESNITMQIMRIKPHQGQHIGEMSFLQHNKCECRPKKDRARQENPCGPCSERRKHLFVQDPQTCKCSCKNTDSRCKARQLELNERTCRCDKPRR

PLGF [3] = biological target: T2, PLGF (UniProt P49763-2 19-149, limits assumed); assay: as above
T2 construct: also called placental growth factor
T2 sequence (looked up): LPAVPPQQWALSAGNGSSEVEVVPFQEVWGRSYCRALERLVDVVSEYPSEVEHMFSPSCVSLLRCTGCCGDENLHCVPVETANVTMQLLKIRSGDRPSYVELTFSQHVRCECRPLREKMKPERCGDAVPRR

VEGF-A [4] = biological target: T1, VEGF-A; assay: BLI (Octet, AHC sensor); fold increase vs VEGF-Grab3 (Samsung Biologics)
PLGF [5] = biological target: T2, PLGF; assay: as above
PLGF [6] = biological target: T3, PLGF (UniProt P49763-2 19-149, limits assumed); assay: BLI Octet; fold increase vs C88
T3 construct: also called placental growth factor
T3 sequence (looked up): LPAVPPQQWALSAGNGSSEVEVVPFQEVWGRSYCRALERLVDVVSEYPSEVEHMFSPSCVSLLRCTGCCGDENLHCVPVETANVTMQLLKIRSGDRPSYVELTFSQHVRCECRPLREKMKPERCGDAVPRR

VEGF-A [7] = biological target: T4, VEGF-A (UniProt P15692-4 27-191, limits assumed); assay: BLI Octet RED96e, AHC capture
T4 construct: also called vascular endothelial growth factor A
T4 sequence (looked up): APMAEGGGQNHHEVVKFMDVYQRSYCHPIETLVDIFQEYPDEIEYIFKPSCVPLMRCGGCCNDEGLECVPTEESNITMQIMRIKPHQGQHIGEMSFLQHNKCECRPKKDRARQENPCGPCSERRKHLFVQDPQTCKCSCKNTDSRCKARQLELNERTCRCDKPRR

PLGF [8] = biological target: T3, PLGF; assay: BLI Octet RED96e, AHC capture
VEGF-A [9] = biological target: T4, VEGF-A; assay: BLI Octet; fold increase vs C88

Binder | Fold (KD) (PLGF [6]) [fold] | Fold (kdis) (PLGF [6]) [fold] | Fold (kon) (PLGF [6]) [fold] | Kd (VEGF-A [7]) [nM] | koff (VEGF-A [7]) [s⁻¹] | kon (VEGF-A [7]) [M⁻¹ s⁻¹] | Kd (PLGF [8]) [nM] | koff (PLGF [8]) [s⁻¹] | kon (PLGF [8]) [M⁻¹ s⁻¹] | Fold (kdis) (VEGF-A [9]) [fold] | Fold (kon) (VEGF-A [9]) [fold] | Fold (KD) (VEGF-A [9]) [fold] | other results
C87 (Fc fusion, Based on VEGF-Grab3; L258D/K300G/Q302T/K304S/K306Q) EFGRPFVEMYSEIPEIIHMTEGRELVIPCRVTSPNITVTLKKFPLDTLIPDGKRIIWDSRKGFIISNATYKEIGLLTCEATVNGHLYKTNYLTHRQTNTIIDVQISTPSPVTLCRGHTLVLNCTATTPDNTRVQMTWSYPDEKNKNASVRRRIDQSNSHANIFYSVLTIDGMTNSDQGLYTCRVRSGPSFKSVNTSVHIYDCGSSGGSSGEPKS[gap - human IgG1 Fc and a few adjoining residues] | – | – | – | – | – | – | – | – | – | – | – | – | IC50 (µg/ml), luciferase reporter, KDR/NFAT-RE HEK293 cells (VEGF-A [1]): 0.0181 µg/mL; Fold (KD) (VEGF-A [2]): > 100 fold; Fold (kdis) (VEGF-A [2]): > 100 fold; Fold (kon) (VEGF-A [2]): 0.93 fold; Fold (KD) (PLGF [3]): 0.64 fold; Fold (kdis) (PLGF [3]): 0.45 fold; Fold (kon) (PLGF [3]): 1.42 fold; Fold (KD) (VEGF-A [4]): 0.52 fold; Fold (kdis) (VEGF-A [4]): 1 fold; Fold (kon) (VEGF-A [4]): 0.52 fold; Fold (KD) (PLGF [5]): 0.88 fold; Fold (kdis) (PLGF [5]): 0.5 fold; Fold (kon) (PLGF [5]): 1.76 fold
C97 (Fc fusion, Based on C88; L243S/R244V; IgG1 Fc) EFGRPFVEMYSEIPEIIHMTEGRELVIPCRVTSPNITVTLKKFPLDTLIPDGKRIIWDSRKGFIISNATYKEIGLLTCEATVNGHLYKTNYLTHRQTNTIIDVQISTPRPVKLSVGHTLVLNCTATTPLNTRVQMTWSYPDEKNKRASVRRRIDQSNSHANIFYSVLTIDKMQNKDKGLYTCRVRSGPSFKSVNTSVHIYDLE[gap - human IgG1 Fc] | 1.35 | 1.28 | 1.06 | 0.006 | 1.68e-06 | 281000 | 0.152 | 0.000195 | 1.28e+06 | 20.9 | 0.49 | – | –
C99 (Fc fusion, Based on C88; L258A; IgG1 Fc) EFGRPFVEMYSEIPEIIHMTEGRELVIPCRVTSPNITVTLKKFPLDTLIPDGKRIIWDSRKGFIISNATYKEIGLLTCEATVNGHLYKTNYLTHRQTNTIIDVQISTPRPVKLLRGHTLVLNCTATTPANTRVQMTWSYPDEKNKRASVRRRIDQSNSHANIFYSVLTIDKMQNKDKGLYTCRVRSGPSFKSVNTSVHIYDLE[gap - human IgG1 Fc] | 0.54 | 0.49 | 1.12 | – | < 1e-07 | 261000 | 0.376 | 0.000511 | 1.36e+06 | > 100 | 0.45 | > 60.9 | –
C103 (Fc fusion, Based on C88; L258A/K300G/Q302T/K304S/K306Q; IgG1 Fc) EFGRPFVEMYSEIPEIIHMTEGRELVIPCRVTSPNITVTLKKFPLDTLIPDGKRIIWDSRKGFIISNATYKEIGLLTCEATVNGHLYKTNYLTHRQTNTIIDVQISTPRPVKLLRGHTLVLNCTATTPANTRVQMTWSYPDEKNKRASVRRRIDQSNSHANIFYSVLTIDGMTNSDQGLYTCRVRSGPSFKSVNTSVHIYDLE[gap - human IgG1 Fc] | 1.27 | 0.7 | 1.82 | 0.249 | 7.15e-05 | 288000 | 0.161 | 0.000355 | 2.21e+06 | 0.49 | 0.5 | 0.24 | –
C105 (Fc fusion, Based on C88; K241E/L243S/R244V/H246E/L258A/K300G/Q302T/K304S/K306Q; IgG1 Fc) EFGRPFVEMYSEIPEIIHMTEGRELVIPCRVTSPNITVTLKKFPLDTLIPDGKRIIWDSRKGFIISNATYKEIGLLTCEATVNGHLYKTNYLTHRQTNTIIDVQISTPRPVELSVGETLVLNCTATTPANTRVQMTWSYPDEKNKRASVRRRIDQSNSHANIFYSVLTIDGMTNSDQGLYTCRVRSGPSFKSVNTSVHIYDLE[gap - human IgG1 Fc] | 0.76 | 0.52 | 1.45 | – | < 1e-07 | 267000 | 0.27 | 0.000475 | 1.76e+06 | > 100 | 0.46 | > 60.9 | –

— patent US20260034244A1 (PANOLOS BIOSCIENCE, published 2026)
